The other results are listed elsewhere or left out. These are further read-outs of the screen, such as a control signal, another cell line or another target. No call is given for them.

This test in a line: inhibitors of HIV fusion peptide binding, primary screen, biochemical, uHTS, fluorescence dequenching (AID 1986). The following applies: cell-free peptide binding, 30 min, measured here: repeat confirmation average inhibition, at 18.6 µM, stronger effect = higher value.
In the case of `CS(=O)(=O)C1=NSC2=NC(=O)/C(=C\c3ccc(OC(=O)c4ccco4)c(Br)c3)C(=N)N21`, the inhibition came to 80%. The result for `CC(C)(C)c1ccc2c(c1)OC(C(=O)N/N=C\c1ccc(-c3cccc(C(=O)O)c3)o1)CO2` (configuration not stated) reads 73.5%; that for `CCOc1cc(/C=C2/C(=N)N3C(=NC2=O)SN=C3S(=O)(=O)CC)ccc1OC(=O)c1ccco1`, 56.2%; that for `CCCOc1ccc(C2C(C(=O)c3cc4ccccc4o3)=C(O)C(=O)N2c2cc(C)on2)cc1` (configuration not stated), 59%.

`COc1ccc(C(=O)Nc2ccc(/C(C)=N/NC(=O)c3ccncc3)cc2)cc1`: the inhibition was found to be 76.9%.

Compound `COc1cc(/C=C2\C(=N)N3N=C(S(C)(=O)=O)SC3=NC2=O)ccc1OCCOc1ccccc1C` gave an inhibition of 75.2%. For `COc1cc(/C=C2\C(=N)N3N=C(S(C)(=O)=O)SC3=NC2=O)ccc1OS(=O)(=O)c1ccccc1`, the inhibition came to 67.1%. The result for `Cc1c(CC(=O)O)c(=O)oc2c(C)c3occ(-c4ccc(Br)cc4)c3cc12` reads 57.8%; that for `CCCCCCc1c(C)c2ccc(OCC(=O)N[C@@H](Cc3ccccc3)C(=O)O)cc2oc1=O`, 52.6%; that for `CC(c1ccccc1)N1C(=O)c2ccc(C(=O)Nc3ccccc3C(=O)O)cc2C1=O` (configuration not stated), 50.5%. The compound `Cc1cccc(S(=O)(=O)Nc2nc3ccccc3nc2Nc2cccc(C(=O)O)c2)c1` gave an inhibition of 50.3%. Turning to `CC(c1ccccc1)N1C(=O)c2ccc(C(=O)Nc3ccc(Br)cc3C(=O)O)cc2C1=O` (configuration not stated), the inhibition came to 77.7%. `Cc1ccc(S(=O)(=O)Oc2ccc(/C=C3/C(=N)N4C(=NC3=O)SN=C4S(C)(=O)=O)cc2)cc1` registered an inhibition of 86.2%. On to `O=C(Nc1ccc(C(=O)O)cc1)/C(=C\C=C\c1ccccc1)NC(=O)c1cccc(Br)c1`, for which the inhibition came to 61%. Turning to `CCOc1cc(/C=C2\C(=O)N(c3cccc(C(=O)O)c3)N=C2C(F)(F)F)ccc1OCC(=O)Nc1ccccc1OC`, the inhibition stood at 88.3%. The result for `Cc1ccc(S(=O)(=O)Oc2ccc(/C=C3\C(=N)N4N=C(S(C)(=O)=O)SC4=NC3=O)cc2)cc1` reads 69%; that for `CC(C)(C)CC(C)(C)c1ccc(OCC(=O)N/N=C/c2ccc(S(=O)(=O)O)o2)cc1`, 56.3%; that for `CCc1nnc(NS(=O)(=O)c2ccc(N/C=C(\C=O)c3nc4cc(Cl)ccc4o3)cc2)s1`, 54.5%. The result for `O=C(O)c1cc(NC(=O)c2ccc(Br)cc2)cc(NC(=O)c2ccc(Br)cc2)c1` reads 53.9%. The compound `CCOC(=O)C1=C(C)N=c2s/c(=C\c3ccc(OCC(=O)O)c(OC)c3)c(=O)n2C1c1ccc(OC)cc1` (configuration not stated) registered an inhibition of 60%.

`COc1cc(/C=C2/C(=N)N3C(=NC2=O)SN=C3S(C)(=O)=O)ccc1OS(=O)(=O)c1ccccc1` gave an inhibition of 65.8%. The result for `O=C(O)Cn1cc(/C=c2/sc3nc4ccccc4n3c2=O)c2ccccc21` reads 60.7%; that for `Cc1ccccc1N/N=C/c1sc(=O)n(Cc2cccc(C(=O)O)c2)c1Cl`, 69.7%. `Cc1cc(C)cc(-n2cccc2/C=C2/C(=N)N3C(=NC2=O)SN=C3S(C)(=O)=O)c1` showed an inhibition of 70.3%.

Compound `COc1cc(/C=C2/C(=O)NN(c3ccc(Cl)cc3)C2=O)cc(Br)c1O` registered an inhibition of 52%.

Compound `Cc1cc(N2C(=O)C(O)=C(C(=O)c3cc4ccccc4o3)C2c2cccc(Br)c2)no1` (configuration not stated) returned an inhibition of 70.1%. The result for `COC(=O)c1sc(-c2ccc(C(C)(C)C)cc2)cc1NC(=O)COCC(=O)O` reads 52.9%; that for `COc1cc(/C=N/Nc2ccc(Cl)c(C(=O)O)c2)ccc1OC(=O)c1ccc(F)cc1`, 54.1%; that for `CCOc1cc(/C=C2/C(=N)N3C(=NC2=O)SN=C3S(C)(=O)=O)ccc1OS(=O)(=O)c1ccccc1`, 81.7%. On to `COc1cc(/C=C2\C(=N)N3N=C(S(C)(=O)=O)SC3=NC2=O)ccc1OC(=O)c1cccs1`, for which the inhibition amounted to 83%. The result for `Cc1cc(N2C(=O)C(O)=C(C(=O)c3cc4ccccc4o3)C2c2ccc(Cl)cc2)no1` (configuration not stated) reads 64.6%. In turn, `O=C(Nc1ccc(-c2nc3ccccc3[nH]2)cc1)c1ccccc1NS(=O)(=O)c1ccc(F)cc1` returned an inhibition of 58.6%.

`COc1cc(NS(=O)(=O)c2ccc(NC(=S)NC(=O)c3sc4ccccc4c3Cl)cc2)nc(OC)n1` had an inhibition of 70.3%. For `O=C(COc1ccc(Cl)cc1)Nc1cc(NC(=O)COc2ccc(Cl)cc2)cc(C(=O)O)c1`, the inhibition stood at 59.3%. `CCOC(=O)c1sc(N2C(=O)C(O)=C(C(=O)c3ccc(C)o3)C2c2cccc([N+](=O)[O-])c2)nc1C` (configuration not stated) returned an inhibition of 54.5%.

`CCS(=O)(=O)C1=NN2C(=N)/C(=C\c3ccc(OS(=O)(=O)c4ccccc4)c(OC)c3)C(=O)N=C2S1` had an inhibition of 67.5%.

With `O=C(NN1C(=O)/C(=C/c2ccc(O)cc2)SC1=S)c1ccccc1O`, the inhibition is 51.8%.

`COc1cc(/C=C2\C(=N)N3N=C(S(C)(=O)=O)SC3=NC2=O)cc(OC)c1OCCOc1ccc(C)cc1` gave an inhibition of 86.3%. The result for `COc1cccc(C2C3=C(N=c4s/c(=C\c5ccc(OCC(=O)O)cc5)c(=O)n42)c2ccccc2CC3)c1` (configuration not stated) reads 70.3%; that for `O=C(O)COc1ccccc1/C=N/NC(=O)CSc1nnc(SCc2cccc3ccccc23)s1`, 59.2%. The result for `O=C1NN(c2ccc(F)c(Cl)c2)C(=O)/C1=C\c1cccc(OC(=O)c2cccs2)c1` reads 87.3%; that for `COc1cc(/C=C2\C(=N)N3N=C(S(C)(=O)=O)SC3=NC2=O)cc(OC)c1OCCOc1cccc(C)c1`, 86%.

As a reminder, the inhibition is the percentage by which the read-out fell short of the control.
